Measurements: the supplement of paper PMC4967469
pIC50: −log10 of the molar value. The IC50 comes from the fitted curve, where viability falls to half of the control; where the fit passes the top or lowest dose, that dose stands as a limit. AUC, from the same fit, is the share of area under the viability curve across the 256-fold dose range; it is 1 without any effect and falls as sensitivity rises. For some of these results: Any top dose called inferred is not printed in the source and was worked back from the curve model. For some of these results: Where an entry number is given, a second screen of the drug exists; the two often differ.

Experiments:
Assay in all cases: Viability of human cancer cell lines after 72 h of drug (GDSC screen)
[1] = compound: S=C(NCc1ccc2c(c1)OCO2)N1CCN(c2ncnc3c2oc2ccccc23)CC1 [MP470]; conditions: top dose 20 µM; top dose inferred
Procedure: (§1)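 Human cancer cell lines in 384-well plates, medium with 10% serum, drug for 72 h over a 256-fold dose range (nine 2-fold or five 4-fold steps up to the top dose). Adherent lines were fixed and stained with the nucleic acid dye Syto60, suspension lines read with resazurin; signal relative to control wells, capped at 0 and 100%. One two-parameter sigmoid per drug and line, fitted in a mixed model over all curves with the slope shared within a line.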

[2] = compound: CC(C)c1ccccc1Cc1cc(C(=O)Nc2ccc(S(=O)(=O)c3ccccc3C(C)(C)C)cc2)c(O)c(O)c1O [TW-37]; conditions: top dose 5 µM
Procedure: as §1

[3] = compound: CCNC(=O)c1noc(-c2cc(C(C)C)c(O)cc2O)c1-c1ccc(CN2CCOCC2)cc1 [AUY922]; conditions: top dose 0.256 µM; top dose inferred
Procedure: as §1

[4] = compound: Nc1ccn([C@@H]2O[C@H](CO)[C@@H](O)C2(F)F)c(=O)n1 [Gemcitabine]; conditions: top dose 1.024 µM
Procedure: as §1

[5] = compound: CC(O)(CS(=O)(=O)c1ccc(F)cc1)C(=O)Nc1ccc(C#N)c(C(F)(F)F)c1 [Bicalutamide]; conditions: top dose inferred
Procedure: as §1

[6] = compound: Cc1ccc(Nc2cc(-c3cccc(N4C(=O)c5ccccc5C4=O)c3)ncn2)cc1NS(C)(=O)=O [KIN001-270]; conditions: top dose 20 µM; top dose inferred
Procedure: as §1

[7] = compound: O=S(=O)(c1ccccc1)N(CC(F)(F)F)c1ccc(C(O)(C(F)(F)F)C(F)(F)F)cc1 [T0901317]; conditions: top dose 10.24 µM; top dose inferred
Procedure: as §1

[8] = compound: Cc1cn(-c2cc(NC(=O)c3ccc(C)c(Nc4nccc(-c5cccnc5)n4)c3)cc(C(F)(F)F)c2)cn1 [Nilotinib]; conditions: top dose 2 µM
Procedure: as §1

[9] = compound: C/C(O)=C(\C#N)C(=O)Nc1cc(Br)ccc1Br [LFM-A13]; conditions: top dose 16 µM; top dose inferred
Procedure: as §1

[10] = compound: NC(=O)c1cccc(-c2cc(Nc3ccc(OC(F)(F)F)cc3)ncn2)c1 [GNF-2]; conditions: top dose 1.28 µM; top dose inferred
Procedure: as §1

[11] = top dose 1.024 µM, screen: GDSC drug entry 150
[12] = top dose 10 µM, screen: GDSC drug entry 1502

Cell Line | AUC [1] | pIC50 [1] | AUC [2] | pIC50 [2] | AUC [3] | pIC50 [3] | AUC [4] | pIC50 [4] | AUC [5, 11] | pIC50 [5, 11] | AUC [5, 12] | pIC50 [5, 12] | AUC [6] | pIC50 [6] | AUC [7] | pIC50 [7] | AUC [8] | pIC50 [8] | AUC [9] | pIC50 [9] | AUC [10] | pIC50 [10]
RCC10RGB (kidney, adherent) | 0.92 | < 4.70 | 0.873 | < 5.30 | 0.848 | < 6.59 | 0.638 | 6.65 | 0.963 | < 5.99 | 0.952 | < 5.00 | 0.955 | < 4.70 | 0.966 | < 4.99 | 0.964 | < 5.70 | 0.855 | < 4.80 | 0.885 | < 5.89
SF539 (glioma, adherent) | 0.98 | < 4.70 | 0.572 | 6.32 | 0.598 | 7.54 | 0.194 | 8.05 | 0.99 | < 5.99 | 0.982 | < 5.00 | 0.972 | < 4.70 | 0.988 | < 4.99 | 0.988 | < 5.70 | 0.98 | < 4.80 | 0.988 | < 5.89
GOTO (neuroblastoma, adherent) | 0.378 | 6.26 | 0.462 | 6.61 | 0.782 | 6.91 | 0.767 | 6.36 | 0.983 | < 5.99 | 0.971 | < 5.00 | 0.896 | < 4.70 | 0.967 | < 4.99 | 0.982 | < 5.70 | 0.984 | < 4.80 | 0.981 | < 5.89
RF-48 (stomach, adherent) | 0.926 | < 4.70 | 0.714 | 5.86 | 0.499 | 7.80 | 0.203 | 8.13 | 0.985 | < 5.99 | 0.971 | < 5.00 | 0.898 | < 4.70 | 0.971 | < 4.99 | 0.983 | < 5.70 | 0.922 | < 4.80 | 0.98 | < 5.89
A498 (kidney, adherent) | 0.954 | < 4.70 | 0.724 | 5.72 | 0.974 | < 6.59 | 0.971 | < 5.99 | 0.959 | < 5.99 | 0.972 | < 5.00 | 0.975 | < 4.70 | 0.979 | < 4.99 | 0.976 | < 5.70 | 0.929 | < 4.80 | 0.888 | < 5.89
EJM (lymphoid neoplasm, semi-adherent) | 0.806 | 5.08 | 0.606 | 6.24 | 0.728 | 7.20 | 0.724 | 6.61 | 0.992 | < 5.99 | 0.99 | < 5.00 | 0.95 | < 4.70 | 0.987 | < 4.99 | 0.988 | < 5.70 | 0.99 | < 4.80 | 0.992 | < 5.89
DSH1 (bladder, adherent) | 0.939 | < 4.70 | 0.616 | 6.19 | 0.647 | 7.40 | 0.582 | 6.97 | 0.989 | < 5.99 | 0.988 | < 5.00 | 0.989 | < 4.70 | 0.987 | < 4.99 | 0.944 | < 5.70 | 0.946 | < 4.80 | 0.989 | < 5.89
IST-SL1 (small cell lung carcinoma, semi-adherent) | 0.967 | < 4.70 | 0.569 | 6.32 | 0.932 | < 6.59 | 0.587 | 6.95 | 0.983 | < 5.99 | 0.982 | < 5.00 | 0.961 | < 4.70 | 0.958 | < 4.99 | 0.986 | < 5.70 | 0.965 | < 4.80 | 0.983 | < 5.89
COLO-668 (small cell lung carcinoma, adherent) | 0.828 | 4.91 | 0.807 | 5.59 | 0.624 | 7.45 | 0.288 | 7.79 | 0.985 | < 5.99 | 0.988 | < 5.00 | 0.989 | < 4.70 | 0.971 | < 4.99 | 0.937 | < 5.70 | 0.983 | < 4.80 | 0.989 | < 5.89
PSN1 (pancreas, adherent) | 0.951 | < 4.70 | 0.45 | 6.63 | 0.276 | 8.38 | 0.022 | > 8.40 | 0.991 | < 5.99 | 0.991 | < 5.00 | 0.96 | < 4.70 | 0.974 | < 4.99 | 0.985 | < 5.70 | 0.975 | < 4.80 | 0.989 | < 5.89
